# Experimental data published in the supplement of paper PMC8728848.
# This is one part of the list.
# B1: E-Selectin (Mus musculus), Q00690 (protein)
# chain: MNASRFLSALVFVLLAGESTAWYYNASSELMTYDEASAYCQRDYTHLVAIQNKEEINYLNSNLKHSPSYYWIGIRKVNNVWIWVGTGKPLTEEAQNWAPGEPNNKQRNEDCVEIYIQRTKDSGMWNDERCNKKKLALCYTASCTNASCSGHGECIETINSYTCKCHPGFLGPNCEQAVTCKPQEHPDYGSLNCSHPFGPFSYNSSCSFGCKRGYLPSSMETTVRCTSSGEWSAPAPACHVVECEALTHPAHGIRKCSSNPGSYPWNTTCTFDCVEGYRRVGAQNLQCTSSGIWDNETPSCKAVTCDAIPQPQNGFVSCSHSTAGELAFKSSCNFTCEQSFTLQGPAQVECSAQGQWTPQIPVCKAVQCEALSAPQQGNMKCLPSASGPFQNGSSCEFSCEEGFELKGSRRLQCGPRGEWDSKKPTCSAVKCDDVPRPQNGVMECAHATTGEFTYKSSCAFQCNEGFSLHGSAQLECTSQGKWTQEVPSCQVVQCPSLDVPGKMNMSCSGTAVFGTVCEFTCPDDWTLNGSAVLTCGATGRWSGMPPTCEAPVSPTRPLVVALSAAGTSLLTSSSLLYLLMRYFRKKAKKFVPASSCQSLQSFENYHVPSYNV
# Assays:
# Test in all cases: glycan array binding signal (z-score within array); higher = stronger binding
# Conditions in all cases: glycan notation: IUPAC condensed, linker removed
# [1] = biological target: Neu5Ac(a2-3)Gal(b1-4)GlcNAc6S
# In short: (§1)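 From the Consortium for Functional Glycomics database, 3228 arrays were curated, keeping only those whose protein sequence was available. Binding is given as a within-array Z-score averaged across arrays sharing a protein sequence and across linkers. Negative Z-scores can be read as non-binding.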
# [2] = biological target: Neu5Ac(a2-3)Gal(b1-4)[Fuc(a1-3)]GlcNAc
# In short: as §1
# [3] = biological target: Neu5Ac(a2-3)Gal(b1-4)[Fuc(a1-3)]GlcNAc(b1-3)Gal
# In short: as §1
# [4] = biological target: Neu5Ac(a2-3)Gal(b1-4)[Fuc(a1-3)]GlcNAc(b1-3)Gal(b1-4)GlcNAc
# In short: as §1
# [5] = biological target: Neu5Ac(a2-3)Gal(b1-4)[Fuc(a1-3)]GlcNAc(b1-3)Gal(b1-4)[Fuc(a1-3)]GlcNAc(b1-3)Gal(b1-4)[Fuc(a1-3)]GlcNAc
# In short: as §1
# [6] = biological target: Neu5Ac(a2-3)Gal(b1-4)[Fuc(a1-3)]GlcNAc(b1-6)[Gal(b1-3)]GalNAc
# In short: as §1
# [7] = biological target: Neu5Ac(a2-3)Gal(b1-4)[Fuc(a1-3)]GlcNAc6S
# In short: as §1
# [8] = biological target: Neu5Ac(a2-3)Gal6S(b1-4)GlcNAc
# In short: as §1
# [9] = biological target: Neu5Ac(a2-3)Gal6S(b1-4)[Fuc(a1-3)]GlcNAc
# In short: as §1
# Neu5Ac(a2-3)GalNAc = biological target: Neu5Ac(a2-3)GalNAc
# In short: as §1
# [10] = biological target: Neu5Ac(a2-3)GalNAc(b1-4)GlcNAc
# In short: as §1
# [11] = biological target: Neu5Ac(a2-3)[GalNAc(b1-4)]Gal(b1-4)Glc
# In short: as §1
# [12] = biological target: Neu5Ac(a2-3)[GalNAc(b1-4)]Gal(b1-4)GlcNAc
# In short: as §1
# [13] = biological target: Neu5Ac(a2-3)[Neu5Ac(a2-6)]GalNAc
# In short: as §1
# Neu5Ac(a2-6)Gal = biological target: Neu5Ac(a2-6)Gal
# In short: as §1
# Neu5Ac(a2-6)Gal(b1-4)Glc = biological target: Neu5Ac(a2-6)Gal(b1-4)Glc
# In short: as §1
# [14] = biological target: Neu5Ac(a2-6)Gal(b1-4)GlcNAc
# In short: as §1
# [15] = biological target: Neu5Ac(a2-6)Gal(b1-4)GlcNAc(b1-2)Man(a1-3)[Gal(b1-4)GlcNAc(b1-2)Man(a1-6)]Man(b1-4)GlcNAc(b1-4)GlcNAc
# In short: as §1
# [16] = biological target: Neu5Ac(a2-6)Gal(b1-4)GlcNAc(b1-2)Man(a1-3)[GlcNAc(b1-2)Man(a1-6)]Man(b1-4)GlcNAc(b1-4)GlcNAc
# In short: as §1
# [17] = biological target: Neu5Ac(a2-6)Gal(b1-4)GlcNAc(b1-2)Man(a1-3)[GlcNAc(b1-2)Man(b1-4)GlcNAc(b1-2)Man(a1-6)]Man(b1-4)GlcNAc(b1-4)GlcNAc
# In short: as §1
# [18] = biological target: Neu5Ac(a2-6)Gal(b1-4)GlcNAc(b1-2)Man(a1-3)[Neu5Ac(a2-6)Gal(b1-4)GlcNAc(b1-2)Man(a1-6)]Man(b1-4)GlcNAc(b1-4)GlcNAc
# In short: as §1
# [19] = biological target: Neu5Ac(a2-6)Gal(b1-4)GlcNAc(b1-2)Man(a1-6)[Gal(b1-4)GlcNAc(b1-2)Man(a1-3)]Man(b1-4)GlcNAc(b1-4)GlcNAc
# In short: as §1
# [20] = biological target: Neu5Ac(a2-6)Gal(b1-4)GlcNAc(b1-2)Man(a1-6)[GlcNAc(b1-2)Man(a1-3)]Man(b1-4)GlcNAc(b1-4)GlcNAc
# In short: as §1
# [21] = biological target: Neu5Ac(a2-6)Gal(b1-4)GlcNAc(b1-3)Gal(b1-4)GlcNAc
# In short: as §1
# [22] = biological target: Neu5Ac(a2-6)Gal(b1-4)GlcNAc(b1-3)Gal(b1-4)[Fuc(a1-3)]GlcNAc(b1-3)Gal(b1-4)[Fuc(a1-3)]GlcNAc
# In short: as §1
# [23] = biological target: Neu5Ac(a2-6)Gal(b1-4)GlcNAc6S
# In short: as §1
# Neu5Ac(a2-6)GalNAc = biological target: Neu5Ac(a2-6)GalNAc
# In short: as §1
# [24] = biological target: Neu5Ac(a2-6)GalNAc(b1-4)GlcNAc
# In short: as §1
# Neu5Ac(a2-8)Neu5Ac = biological target: Neu5Ac(a2-8)Neu5Ac
# In short: as §1
# [25] = biological target: Neu5Ac(a2-8)Neu5Ac(a2-3)Gal(b1-4)Glc
# In short: as §1
# [26] = biological target: Neu5Ac(a2-8)Neu5Ac(a2-3)[GalNAc(b1-4)]Gal(b1-4)Glc
# In short: as §1
# [27] = biological target: Neu5Ac(a2-8)Neu5Ac(a2-8)Neu5Ac
# In short: as §1
# [28] = biological target: Neu5Ac(a2-8)Neu5Ac(a2-8)Neu5Ac(a2-3)Gal(b1-4)Glc
# In short: as §1
# [29] = biological target: Neu5Ac(a2-8)Neu5Ac(a2-8)Neu5Ac(a2-3)[GalNAc(b1-4)]Gal(b1-4)Glc
# In short: as §1
# [30] = biological target: Neu5Ac(a2-8)Neu5Ac(a2-8)Neu5Ac(a2-8)Neu5Ac(a2-3)[GalNAc(b1-4)]Gal(b1-4)Glc
# In short: as §1
# Neu5Ac(b1-6)GalNAc = biological target: Neu5Ac(b1-6)GalNAc
# In short: as §1
# [31] = biological target: Neu5Ac(b2-6)Gal(b1-4)GlcNAc
# In short: as §1
# Neu5Ac(b2-6)GalNAc = biological target: Neu5Ac(b2-6)GalNAc
# In short: as §1
# [32] = biological target: Neu5Ac9Ac(a2-6)Gal(b1-4)GlcNAc
# In short: as §1
# [33] = biological target: Neu5Gc(a2-3)Gal(b1-3)GlcNAc
# In short: as §1
# [34] = biological target: Neu5Gc(a2-3)Gal(b1-3)[Fuc(a1-4)]GlcNAc
# In short: as §1
# Neu5Gc(a2-3)Gal(b1-4)Glc = biological target: Neu5Gc(a2-3)Gal(b1-4)Glc
# In short: as §1
# [35] = biological target: Neu5Gc(a2-3)Gal(b1-4)GlcNAc
# In short: as §1
# [36] = biological target: Neu5Gc(a2-3)Gal(b1-4)[Fuc(a1-3)]GlcNAc
# In short: as §1
# [37] = biological target: Neu5Gc(a2-6)Gal(b1-4)GlcNAc
# In short: as §1
# Neu5Gc(a2-6)GalNAc = biological target: Neu5Gc(a2-6)GalNAc
# In short: as §1
# [38] = biological target: Neu5Gc(b2-6)Gal(b1-4)GlcNAc
# In short: as §1
binder,measurement,setting,value
B1,glycan array binding signal (z-score),[1],-0.206
same,glycan array binding signal (z-score),[2],3.05
same,glycan array binding signal (z-score),[3],2.72
same,glycan array binding signal (z-score),[4],3
same,glycan array binding signal (z-score),[5],3.13
same,glycan array binding signal (z-score),[6],2.21
same,glycan array binding signal (z-score),[7],3.24
same,glycan array binding signal (z-score),[8],-0.266
same,glycan array binding signal (z-score),[9],-0.129
same,glycan array binding signal (z-score),Neu5Ac(a2-3)GalNAc,-0.266
same,glycan array binding signal (z-score),[10],-0.371
same,glycan array binding signal (z-score),[11],-0.209
same,glycan array binding signal (z-score),[12],-0.334
same,glycan array binding signal (z-score),[13],-0.21
same,glycan array binding signal (z-score),Neu5Ac(a2-6)Gal,-0.355
same,glycan array binding signal (z-score),Neu5Ac(a2-6)Gal(b1-4)Glc,-0.293
same,glycan array binding signal (z-score),[14],-0.289
same,glycan array binding signal (z-score),[15],-0.218
same,glycan array binding signal (z-score),[16],-0.234
same,glycan array binding signal (z-score),[17],-0.315
same,glycan array binding signal (z-score),[18],-0.247
same,glycan array binding signal (z-score),[19],-0.219
same,glycan array binding signal (z-score),[20],-0.194
same,glycan array binding signal (z-score),[21],-0.322
same,glycan array binding signal (z-score),[22],0.298
same,glycan array binding signal (z-score),[23],-0.299
same,glycan array binding signal (z-score),Neu5Ac(a2-6)GalNAc,-0.32
same,glycan array binding signal (z-score),[24],-0.27
same,glycan array binding signal (z-score),Neu5Ac(a2-8)Neu5Ac,-0.246
same,glycan array binding signal (z-score),[25],-0.242
same,glycan array binding signal (z-score),[26],-0.2
same,glycan array binding signal (z-score),[27],-0.28
same,glycan array binding signal (z-score),[28],-0.279
same,glycan array binding signal (z-score),[29],-0.292
same,glycan array binding signal (z-score),[30],-0.312
same,glycan array binding signal (z-score),Neu5Ac(b1-6)GalNAc,-0.379
same,glycan array binding signal (z-score),[31],-0.346
same,glycan array binding signal (z-score),Neu5Ac(b2-6)GalNAc,-0.199
same,glycan array binding signal (z-score),[32],-0.286
same,glycan array binding signal (z-score),[33],-0.335
same,glycan array binding signal (z-score),[34],4.57
same,glycan array binding signal (z-score),Neu5Gc(a2-3)Gal(b1-4)Glc,-0.33
same,glycan array binding signal (z-score),[35],-0.254
same,glycan array binding signal (z-score),[36],2.71
same,glycan array binding signal (z-score),[37],-0.355
same,glycan array binding signal (z-score),Neu5Gc(a2-6)GalNAc,-0.253
same,glycan array binding signal (z-score),[38],-0.17
